Test results from the supplement of paper PMC3334620.
Whole data set: some 33,000 sequences, median “E-score (-0.5 to 0.5)” near -0.032, cut for the highest 2% near 0.36. This is one part of the list.

Target: T1, Sko1 (UniProt Q02100)
T1 sequence: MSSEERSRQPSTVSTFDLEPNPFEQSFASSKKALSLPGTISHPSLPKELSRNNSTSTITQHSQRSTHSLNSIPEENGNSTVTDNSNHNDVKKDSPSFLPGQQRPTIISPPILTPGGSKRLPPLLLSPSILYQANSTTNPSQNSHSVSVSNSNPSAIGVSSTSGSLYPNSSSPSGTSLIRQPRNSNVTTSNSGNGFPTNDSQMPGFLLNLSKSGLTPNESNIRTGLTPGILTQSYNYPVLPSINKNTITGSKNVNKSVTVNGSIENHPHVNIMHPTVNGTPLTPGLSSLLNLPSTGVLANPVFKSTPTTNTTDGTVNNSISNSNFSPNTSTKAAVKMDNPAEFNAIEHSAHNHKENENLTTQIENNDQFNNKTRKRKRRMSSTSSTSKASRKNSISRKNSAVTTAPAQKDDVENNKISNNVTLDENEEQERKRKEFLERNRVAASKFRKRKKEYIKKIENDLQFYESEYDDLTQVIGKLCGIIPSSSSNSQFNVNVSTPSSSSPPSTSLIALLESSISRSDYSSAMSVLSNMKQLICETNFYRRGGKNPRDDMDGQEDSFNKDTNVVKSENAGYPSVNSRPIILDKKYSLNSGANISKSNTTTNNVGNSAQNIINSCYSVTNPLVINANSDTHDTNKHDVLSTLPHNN
Test: PBM E-score (8-mer binding enrichment) (E-score (-0.5 to 0.5)); higher = stronger / more preferred TF binding; most listed sequences are background and not binding sites
Conditions: protein concentration: 200 nM; construct: GST-full length
Protocol: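 Universal 'all 10-mer' protein binding microarrays (Agilent AMADID 015681) probed with GST-tagged S. cerevisiae TFs (full-length or DBD) made by in vitro transcription/translation (PURExpress), about 100-200 nM. Bound TF was detected with fluorescent anti-GST. Each ungapped 8-mer (which stands for itself and its reverse complement) is scored by the PBM enrichment score (E-score), a modified Wilcoxon-Mann-Whitney statistic from -0.5 to +0.5, computed with the Universal PBM Analysis Suite. Scale: above 0.35 generally sequence-specific binding.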

Sequence | PBM E-score
AAACATCA | 0.189
GGGTCTAC | -0.00528
GGTCAGGA | -0.245
CTGTTAGA | -0.0627
GGATAGCA | -0.0249
CTTCCTAC | -0.225
CTAACTTA | 0.00938
ATAGTGTG | 0.0884
GAACCAGC | -0.152
GCACCTGC | -0.202
CACGGATC | -0.1
ACCTAAAT | 0.151
ATCGCAGA | -0.0496
ACTAAGCG | -0.0198
ACCCTAAC | 0.0777
GTGAGTGA | 0.0585
GACTACAC | 0.0778
ATCGTTTG | 0.0556
AATGATAG | 0.233
GCCAAAGC | -0.285
TACCGACA | 0.0623
AAATGGTC | -0.0521

Sequence | PBM E-score
AAAGCCAT | 0.0868
CGCATTCC | -0.316
ATCTCAGC | -0.0484
AACATCAG | 0.125
CACGGCAA | -0.0387
CACAGGGC | -0.0729
CGTGCCCA | -0.0412
TACGGAAA | 0.1
ACGACACT | 0.182
AGCCCATC | -0.212
ACAGTCGC | -0.127
CCGACCAA | -0.15
GGGCAGCA | -0.276
AGGCTCGA | 0.0161
CCACTCTC | -0.23
CTGTCGAC | -0.0259
GTTAATAA | 0.189
GCAAGACA | -0.105
TGGCCCAA | -0.0707
CCACGGCG | -0.0828
CCGGTGGA | -0.297
ACGAGTGG | -0.164

Sequence | PBM E-score
AGTGATTG | -0.0807
ATTCTAGA | 0.0481
ACGTCGTA | 0.399
AAGGTAGG | -0.0031
AAACACTG | 0.0659
AACGGTCT | -0.2
GGACGCCC | -0.382
CAGGTCAA | -0.151
TGGTGAAA | 0.0222
GAGGAAAA | -0.077
CGATCATA | 0.202
CCAGGTCG | -0.248
TAAAACCA | 0.0242
ATCTGCGC | -0.0753
ACGCGCTA | 0.284
GCATGCAA | -0.00617
CAGGCAAG | -0.0994
CTTCAGTA | 0.113
CTGCAGCA | -0.155
CGCCGCCC | -0.187
ATCCCACA | -0.194
ATTCAGCC | -0.0566

Sequence | PBM E-score
ACGGGGTC | -0.332
ACGGCGCA | -0.0201
CGAAAGAC | 0.0404
GGTGTAAC | 0.0191
ACATGAGG | -0.0474
CATTAGTC | -0.139
ACCGTTGG | -0.126
CTTTTACA | 0.249
GCAGGCCA | -0.188
AGGGTCTA | 0.0287
GAATATGA | 0.192
CCCAAACG | -0.0802
GAAAGAGC | 0.0403
CCCACGGC | -0.145
ATGCACGG | -0.154
CGCTTCAG | -0.113
GCACCTCA | 0.0472
CATCTTAA | 0.191
AAATGACG | 0.481
CGAGGTAG | -0.329
AACCTGAG | 0.0301
CTCAACGC | -0.145

Sequence | PBM E-score
AGTGCATC | 0.093
ACAACCCA | 0.0415
AAGGCGGA | -0.0927
CGTCGACG | 0.0714
GTAGTTGA | 0.173
AAGGGAGG | -0.244
ACGTTATA | 0.426
CATGCGGA | -0.0617
CCAGGATA | 0.0428
ACACACAG | -0.0108
AGTGCACC | -0.0677
GTCTACTA | 0.108
ACAACGGC | -0.193
ATGATGAG | 0.275
CGCACCCA | 0.0218
CAGCACGC | -0.0149
ACCCTCGC | -0.172
CATGAGAG | 0.0936
ATACAATA | 0.153
GTGGATCA | -0.15
AGGCGTTG | -0.017
